Test results: PubChem BioAssay AID624202 (National Center for Advancing Translational Sciences (NCATS), 2012)
The whole screen tested about 380,000 compounds, of which about 4,000 (1.1%) were called active. This list was built around the results that the source calls inconclusive (neither active nor inactive); the mix of calls is not that of the screen. Calls come from the whole dose curve; as a rule, active = well fitted activation curve with a large enough effect; inconclusive = small, poorly fitted or top-dose-only effect; inactive = no such curve, though single readings can be large or run the other way. A potency beside an inconclusive call is a rough fit, not a confirmed value.
Potency is the fitted concentration of half-maximal effect; tags give direction and shape of the fitted curve.

Experiment: qHTS Assay to Identify Small Molecule Activators of BRCA1 Expression; note: nearly all actives have a fitted effect of over 80% in size
Conditions: MCF7-BRCA1-FFLuc reporter, luminescence, 48 h; activation: at 46.1 µM (top of the series), scaled: vehicle 0%, 10 µM genistein 100% unless noted
Method in brief: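 MCF7-BRCA1-FFLuc cells, 2000/well in phenol-red-free MEM, attached 2 h then treated 48 h at 37 C. Luciferase luminescence read 15 min after reagent; normalized to genistein maximum activation (10microM) and DMSO, concentration-response fitted.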
For `CC(C)(C)C(=O)N(Cc1ccc(Cl)cc1)Cc1cccnc1`, the Potency was “inactive”.
With `Cc1nn(C)c(C)c1CNC(=O)Nc1cccc(Cl)c1` the Potency was active: 3.98 µM.
With `Cc1cc(NCc2ccccc2Cl)n2nnnc2n1` the Potency was “inactive”.
In the case of `CCOC(=O)c1sc(/N=C/C2=C(O)CC(C)(C)CC2=O)c(C(=O)OCC)c1C`, the Potency is reported as inconclusive: 10 µM [activator, partial curve, poor fit].
For `CC(=O)Cc1nsc(NC(=O)c2ccc(COc3ccc(C)cc3)o2)n1`, the Potency was inconclusive: 8.91 µM [activator, partial curve, poor fit].
For `C/C(=N\NC(=O)c1nnn(-c2nonc2N)c1C)c1ccc(OCc2ccccc2)cc1`, the Potency was inconclusive: 1.12 µM [activator, full curve, poor fit].
In the case of `COc1cccc(NC(=O)c2cc3ccccc3oc2=O)c1`, the Potency is reported as inconclusive: 3.98 µM [activator, partial curve, poor fit].
With `Nc1ccc(/C=C/C(=O)c2cccs2)cc1` the Potency was inconclusive: 14.1 µM [activator, partial curve, poor fit].
With `COc1ccc(Cn2c(=O)[nH]c3cc(C(=O)N4CCN(c5cc(Cl)ccc5C)CC4)ccc3c2=O)cc1` the Potency was inconclusive: 3.16 µM [activator, partial curve, poor fit].
For `OC(c1ccccc1)c1nc(-c2cc3ccccc3o2)cs1` (stereo unspecified), the Potency was inconclusive: 2.51 µM [activator, full curve, poor fit].
For `CC(=O)Nc1ccc(C(=O)/C=C/c2ccc[nH]2)cc1`, the Potency was inconclusive: 17.8 µM [activator, partial curve, poor fit].
For `COc1ccccc1N1CCN(C(=O)CN2C(=O)c3cccc4cccc(c34)C2=O)CC1`, the Potency was “inactive”.
For `O=C(CCC(=O)Nc1ccccc1)N/N=C/c1ccc2c(c1)OCO2`, the Potency was inconclusive: 22.4 µM [activator, single point].
For `Cc1cccnc1NC(=S)Nc1ccc(F)cc1F`, the Potency was inconclusive: 15.8 µM [activator, single point].
With `CC(C)(C)C(=O)Nc1nc(-c2ccc3c(c2)OCO3)cs1` the Potency was inconclusive: 1.26 µM [activator, full curve, poor fit].
With `Cc1ccnc(NC(=O)CNC(=O)c2sc3ccccc3c2Cl)c1` the Potency was inconclusive: 11.2 µM [activator, partial curve, poor fit].
For `O=C(Nc1cccc(S(=O)(=O)N2CCCC2)c1)c1ccco1`, the Potency was “inactive”.
With `Cc1ccc(CSc2nc3ccccc3c(=O)[nH]2)cc1` the Potency was inconclusive: 8.91 µM [activator, partial curve, poor fit].
For `O=C(/C=C/c1ccc(OCCCF)cc1)N1CCOCC1`, the Potency was active: 10 µM.
For `Fc1ccccc1CSCc1nc2ccccc2[nH]1`, the Potency was active: 5.62 µM.
In the case of `COc1ccnc(CSC(N)=Nc2ccc(F)cc2)c1`, the Potency is reported as inconclusive: 11.2 µM [activator, partial curve, poor fit].
In the case of `O=C(/C=C\Nc1ccccn1)c1ccc(Cl)cc1`, the activation is reported as inconclusive: -66.6% [activator].
For `Cc1nn(-c2ccccc2)c(N)c1N=Nc1cccnc1`, the Potency was inconclusive: 10 µM [activator, partial curve, poor fit].
For `COc1c(C(=O)Nc2nccs2)ccc2ccccc12`, the Potency was inconclusive: 12.6 µM [activator, partial curve, poor fit].
In the case of `N#C/C(=N\Nc1ccc([N+](=O)[O-])cc1)C(=N)N1CCOCC1`, the Potency is reported as inconclusive: 14.1 µM [activator, single point].
In the case of `CCn1c(=O)cc(OCC(=O)NC(C)c2ccc3c(c2)OCCO3)c2ccccc21` (stereo unspecified), the Potency is reported as “inactive”.
For `CCc1nc2c(OCC3CCCCC3)cccn2c1N(C)C(=O)c1ccccc1F`, the Potency was “inactive”.
In the case of `COc1ccc(C(O)c2nc(-c3ccc4ccccc4c3)cs2)cc1` (stereo unspecified), the Potency is reported as inconclusive: 17.8 µM [activator, partial curve, poor fit].
With `CCN(CC)c1ccc(/C=C(/C#N)C(=O)NCc2ccccc2)o1` the Potency was active: 10 µM.
With `COc1cccc(CN=C2Nc3ccccc3CS2)c1` the Potency was inconclusive: 12.6 µM [activator, partial curve, poor fit].
With `Fc1ccc2nc(N3CCCCC3)sc2c1` the Potency was active: 4.47 µM.
With `CCc1nc2c(OCCn3cccc3)cccn2c1N(C=O)Cc1ccccc1` the Potency was “inactive”.
With `Cc1ccc2cc3cc(C(=O)N4CCCCC4C)oc3nc2c1` (stereo unspecified) the Potency was inconclusive: 0.562 µM [activator, full curve, poor fit].
In the case of `CCCCNC(=O)c1nnn(-c2ccccc2)c1N`, the Potency is reported as inconclusive: 11.2 µM [activator, partial curve, poor fit].
For `Cc1ccc2nc(-c3ccc(N4C(=NC(=O)CCC(=O)O)SC5CS(=O)(=O)CC54)cc3)sc2c1` (stereo unspecified), the Potency was active: 5.62 µM.
In the case of `COc1ccc(CCNC(=O)CCC(=O)Nc2ccc3nc(N4CCN(C)CC4)cc(C)c3c2)cc1OC`, the Potency is reported as “inactive”.
With `Cc1oc(C(C)(C)C)cc1C(=O)Nc1ccc(C(=O)O)cc1` the Potency was inconclusive: 11.2 µM [activator, partial curve, poor fit].
For `Cc1nc(C(C)NC(=O)CCc2nnc(CCCc3ccccc3)o2)c(C)s1` (stereo unspecified), the Potency was inconclusive: 12.6 µM [activator, partial curve, poor fit].
With `N/C(=N\OC(=O)c1ccc([N+](=O)[O-])cc1)c1cccnc1` the Potency was inconclusive: 11.2 µM [activator, partial curve, poor fit].
In the case of `Clc1ccccc1OCCn1cnc2ccccc21`, the Potency is reported as inconclusive: 11.2 µM [activator, partial curve, poor fit].
With `COc1cccc(C(=O)Nc2nc3ccccc3s2)c1` the Potency was inconclusive: 0.708 µM [activator, full curve, poor fit].
With `CCCCc1ccc(NC(=O)C(C)CC)cc1` (stereo unspecified) the Potency was inconclusive: 11.2 µM [activator, partial curve, poor fit].
For `CCOc1ccc(C(=O)O/N=C(\N)c2ccccn2)cc1OCC`, the Potency was inconclusive: 2.24 µM [activator, full curve, poor fit].
For `CS(=O)(=O)c1cccc(C(=O)Nc2ccc3c(c2)OCCCO3)c1`, the Potency was inconclusive: 15.8 µM [activator, partial curve, poor fit].
In the case of `C=C(CN(C)C)C(=O)c1ccc(OC2OC(COC(C)=O)C(OC(C)=O)C(OC(C)=O)C2OC(C)=O)cc1` (stereo unspecified), the Potency is reported as “inactive”.
With `CCOCCCNC(=O)c1cccc(OC2CCN(S(C)(=O)=O)CC2)c1` the Potency was inconclusive: 7.08 µM [activator, partial curve, poor fit].
With `Cc1cc(N2C(=O)C(O)=C(C(=O)c3ccco3)C2c2cccc(Cl)c2)no1` (stereo unspecified) the Potency was inconclusive: 35.5 µM [activator, single point].
For `COCCN(C(=O)CSc1nnc(-c2ccc(Cl)cc2)o1)c1c(N)n(CC(C)C)c(=O)[nH]c1=O`, the Potency was “inactive”.
In the case of `COc1ccccc1OCc1cc(C(=O)N2CCCC(OCc3cccnc3)C2)no1` (stereo unspecified), the Potency is reported as active: 7.08 µM.
In the case of `c1ccc2c(c1)ccn1c(Cc3ccsc3)c(C3CCCCC3)nc21`, the Potency is reported as “inactive”.
In the case of `CCCc1ccc2oc(C(=O)NCCCN3CCOCC3)c(C)c2c1`, the Potency is reported as inconclusive: 11.2 µM [activator, partial curve, poor fit].
In the case of `Cc1ccc(NC(=O)C2CCCN(C(=O)c3ccc(Cl)cc3)C2)cc1C` (stereo unspecified), the Potency is reported as inconclusive: 12.6 µM [activator, single point].
For `CC(C)Sc1nnc(-c2c[nH]c3ccccc23)n1C`, the Potency was active: 7.08 µM.
With `OC[C@@H]1CN(Cc2ccco2)C[C@H](n2cnc3c(NC4CCCC4)ncnc32)O1` the Potency was “inactive”.
With `CNC(=O)CCc1nc(-c2ccc(C(C)(C)C)cc2)no1` the activation was inconclusive: -85.7% [activator].
In the case of `CC(=O)c1ccc(NC(=O)/C(Cl)=C/c2ccccc2)cc1`, the Potency is reported as inconclusive: 2 µM [activator, partial curve, poor fit].
For `CCOc1ccc(N2C(=O)CC(NCC#N)C2=O)cc1` (stereo unspecified), the Potency was “inactive”.
For `O=[N+]([O-])c1ccccc1COc1ccc(Cl)c2cccnc12`, the Potency was inconclusive: 0.631 µM [activator, full curve, poor fit].
For `O=c1oc(/C=C/c2ccccc2)nc2sc3c(c12)CCC3`, the Potency was inconclusive: 6.31 µM [activator, partial curve, poor fit].
For `COc1cccc2[nH]c(=O)c(-c3ccccc3)cc12`, the Potency was active: 3.16 µM.
For `O=C(NCCc1ccccc1)c1ccc(-c2cccnc2)c2ccoc12`, the Potency was active: 7.08 µM.
In the case of `Cc1nn2c(nc1=O)SCC(c1ccccc1)=N2`, the Potency is reported as inconclusive: 0.631 µM [activator, full curve, poor fit].
With `O=[N+]([O-])c1cccc(-c2ccc(SCc3ccccn3)nn2)c1` the Potency was active: 6.31 µM.
For `Cc1ccc(SCCSc2nc(C)cc(=O)[nH]2)cc1`, the Potency was inconclusive: 2.51 µM [activator, full curve, poor fit].
With `Cc1nn(C)c(C)c1/C=C/C(=O)c1ccc(Cl)cc1Cl` the Potency was “inactive”.
For `Oc1ccccc1/C=N/NC1=NCCCCC1`, the Potency was inconclusive: 2.82 µM [activator, full curve, poor fit].
For `Cc1c(/C=C/C(=O)c2ccccc2O)cnn1C`, the Potency was inconclusive: 11.2 µM [activator, partial curve, poor fit].
For `NS(=O)(=O)c1ccc(NC(=O)CSc2nnc(-c3ccc(O)cc3)o2)cc1`, the Potency was inconclusive: 11.2 µM [activator, single point].
With `c1ccc(-c2ccc3sccc3n2)cc1` the Potency was inconclusive: 8.91 µM [activator, partial curve, poor fit].
In the case of `CCOc1cc(C)c(S(=O)(=O)Nc2ccc(Cl)cn2)cc1C`, the Potency is reported as “inactive”.
With `COc1ccccc1Oc1ncnc2c1cnn2-c1ccccc1` the Potency was inconclusive: 4.47 µM [activator, partial curve, poor fit].
